Out of some 310,000 compounds screened, about 14,000 (4.5%) showed an effect of 50% or more. The effect is printed as a negative number. Some of the results follow.
Each compound was assayed against human ether-à-go-go-related gene (hERG) potassium channel (human, UniProt Q12809) (assay: primary screen, population patch clamp on CHO cells stably expressing hERG).
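Note: peak tail current of the secondary pulse compared with the same well before compound.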

human ether-à-go-go-related gene (hERG) potassium channel, sequence (Q12809 whole entry, looked up): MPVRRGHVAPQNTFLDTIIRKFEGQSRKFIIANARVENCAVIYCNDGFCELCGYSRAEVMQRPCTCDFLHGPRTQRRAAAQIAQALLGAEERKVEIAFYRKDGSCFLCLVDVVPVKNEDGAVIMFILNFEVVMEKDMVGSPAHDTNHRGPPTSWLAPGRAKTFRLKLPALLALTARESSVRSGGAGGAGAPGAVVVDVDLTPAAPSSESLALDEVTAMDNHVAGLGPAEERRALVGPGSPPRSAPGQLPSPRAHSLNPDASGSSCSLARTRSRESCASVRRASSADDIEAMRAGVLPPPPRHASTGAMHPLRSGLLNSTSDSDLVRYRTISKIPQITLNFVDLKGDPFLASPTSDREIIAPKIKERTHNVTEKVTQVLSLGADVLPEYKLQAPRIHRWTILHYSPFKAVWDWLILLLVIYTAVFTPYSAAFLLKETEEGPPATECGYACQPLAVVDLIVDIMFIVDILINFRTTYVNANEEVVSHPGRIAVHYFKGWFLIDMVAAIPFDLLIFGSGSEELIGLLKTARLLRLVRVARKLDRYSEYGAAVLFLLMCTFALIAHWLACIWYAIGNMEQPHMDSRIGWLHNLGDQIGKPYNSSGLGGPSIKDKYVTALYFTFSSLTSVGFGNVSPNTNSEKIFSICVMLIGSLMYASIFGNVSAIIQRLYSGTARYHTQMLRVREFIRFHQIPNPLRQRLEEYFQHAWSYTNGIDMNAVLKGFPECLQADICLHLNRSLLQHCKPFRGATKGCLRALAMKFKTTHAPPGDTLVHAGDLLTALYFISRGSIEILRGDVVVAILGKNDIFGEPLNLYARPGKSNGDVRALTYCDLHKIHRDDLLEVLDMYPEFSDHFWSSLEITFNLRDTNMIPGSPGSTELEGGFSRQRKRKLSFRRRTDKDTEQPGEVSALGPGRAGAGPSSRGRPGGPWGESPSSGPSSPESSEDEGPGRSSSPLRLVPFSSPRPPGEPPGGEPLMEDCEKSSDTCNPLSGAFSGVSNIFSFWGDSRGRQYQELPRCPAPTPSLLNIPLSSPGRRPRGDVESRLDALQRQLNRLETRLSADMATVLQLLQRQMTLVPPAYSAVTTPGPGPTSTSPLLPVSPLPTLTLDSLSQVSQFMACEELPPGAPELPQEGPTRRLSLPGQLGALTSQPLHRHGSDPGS

In order of rising “hERG current change (%, negative = inhibition) at 10uM” value:
1. CCc1ccc2[nH]c(=O)c(CN(CCN(CC)CC)C(=S)NCc3ccco3)cc2c1  -67.9%
2. CCCCC(=O)Nc1ccc2c(c1)nc(CCN1CCN(c3ccccn3)CC1)n2C  -56.5%
3. CN(Cc1ccc2nonc2c1)Cc1nc(Cc2cccc(F)c2)no1  -35.4%
4. CC(C)(C)SCCNC(=O)c1ccc(CN2CCc3ccccc3C2)cc1  -35.1%
5. CN(C(=O)C1CCC(CNS(=O)(=O)c2cccc3cccnc23)CC1)C1CCCCC1 (centres unmarked)  -29.4%
6. CCN(CC(=O)Nc1ccc2c(c1)OCCO2)Cc1nc2cc(Cl)ccc2c(=O)[nH]1  -29%
7. Cc1ccccc1NS(=O)(=O)c1nnc(NC(=O)c2ccccc2C)s1  -24.1%
8. CCC(C)(C)n1nnnc1C(c1ccncc1)N1CCC(C)CC1 (centres unmarked)  -23.1%
9. Cc1cc(C)c(OCC(=O)Nc2ccc(S(=O)(=O)N3CCOCC3)cc2)c(C)c1  -22.8%
10. O=C(OCCOCCN=C1NS(=O)(=O)c2ccccc21)c1ccccc1Br  -19.4%
11. O=[N+]([O-])c1ccc(/C=N/Nc2nc(N3CCCCC3)nc(N3CCCCC3)n2)o1  -18.1%
12. CC(=O)c1ccc(-c2ccc(C(=O)N(C)c3c(N)n(Cc4ccccc4)c(=O)[nH]c3=O)o2)cc1  -14.5%
13. COCCn1cc(C(=O)NCCN(C)C)c2c3ccccc3n(C)c2c1=O  -14%
14. Cc1cnc(C(=O)Nc2ccc(C(C)C)cc2)cn1  -14%
15. NC(N)=NS(=O)(=O)c1ccc(N=C2C(=O)Nc3ccccc32)cc1  -11.6%
16. CC(C)NS(=O)(=O)c1ccc(OCC(=O)N2CCN(Cc3ccccc3)CC2)c(Cl)c1  -11.5%
17. Cc1sc2ncnc(N3CCC(C)CC3)c2c1C  -11.3%
18. CC(C)N1CCc2c(sc(NC(=O)c3ccc(S(=O)(=O)N4CCOCC4)cc3)c2C(N)=O)C1  -11.2%
19. CCn1c(=O)n(CCOC)c(=O)c2c3c(sc21)CCCC3  -10.1%
20. CCC1(c2ccccc2)NC(=O)N(CC(=O)Nc2ccccc2C(=O)NC2CC2)C1=O (centres unmarked)  -7.31%
21. COc1ccc(N(CC(=O)Nc2c(C)n(C)n(-c3ccccc3)c2=O)S(=O)(=O)c2ccccc2)cc1OC  -6.8%
22. O=P(O)(O)O.c1ccc(CSCCc2ccncc2)cc1  -5.48%
23. CCOc1ccc(NC(=O)CS(=O)(=O)c2cn(CC)c3ccccc23)cc1  -4.64%
24. CC1CCN(C(=O)c2ccccc2NC(=O)Nc2ccccc2)CC1  -4.25%
25. Cc1cc(C(=O)N2CCN(Cc3ccc4c(c3)OCO4)CC2)on1  -4.02%
26. Cc1ccccc1CNC(=O)c1ccc(CSCc2ccccc2)cc1  -2.56%
27. COc1ccccc1N(Cc1cc2cccc(C)c2[nH]c1=O)C(=O)C(C)C  -2.2%
28. CC1(C)Cc2c(c(-c3ccco3)nc3sc4c(NCC5CCCO5)ncnc4c23)CO1 (centres unmarked)  0.368%
29. CCc1nnc(NC(=O)c2ccc(S(=O)(=O)N3CCN(Cc4ccccc4)CC3)cc2)s1  1.72%
30. O=C(CCSc1nnc2ccc3ccccc3n12)Nc1ccc(F)cc1  1.96%
31. Cl.Nc1nc2cc3ccccc3cc2[nH]c1=O  3.54%
32. CC(O)CN1CC(O)=C(c2nc3ccccc3s2)C1=N (centres unmarked)  3.89%
33. Nc1cccc2c1C(=O)N(CCOc1ccc(F)cc1)C2=O  3.98%
34. O=C(NCc1ccco1)/C(=C/c1ccccc1)NC(=O)c1ccco1  4.72%
35. COc1ccc2oc(C(=O)c3ccccc3)c(N)c2c1  4.76%
36. Cc1ccc(C)c(NC(=O)CSc2nnc(-c3ccco3)o2)c1  5.02%
37. CS(=O)(=O)N(CC(=O)NCc1ccccc1Cl)c1cccc([N+](=O)[O-])c1  5.22%
38. Cc1ccc(CC(=O)NC2CCCc3ccccc32)cc1C (centres unmarked)  5.63%
39. COc1ccc(C(=O)N/C(=C\c2cn(C)c3ccccc23)C(=O)N2CCOCC2)cc1OC  6.13%
40. COc1cc(CNCCO)ccc1OCCc1ccccc1  6.61%
41. COc1cccc(CN2CC(C(=O)NCCCc3ccncc3)CCC2=O)c1 (centres unmarked)  7.61%
42. CCCCC1CC(CSc2ncn[nH]2)OC1=O (centres unmarked)  8.14%
43. O=c1c2ccccc2[nH]c(=S)n1-c1cccnc1  8.44%
44. O=C(CNC(=O)c1ccc(Br)cc1)Nc1ccc(Br)cc1C(=O)c1ccccc1  8.45%
45. Cc1c(Cl)cccc1NC(=S)NCCc1ccccn1  9.25%
46. COc1ccccc1C(=O)C1CCCN(C(=O)c2ccccc2Cl)C1 (centres unmarked)  10.4%
47. Oc1c(C(Nc2cccc(C(F)(F)F)c2)c2cccnc2)ccc2cccnc12 (centres unmarked)  10.8%
48. Cc1ccc(SC(C)C(=O)NCc2ccncc2)cc1 (centres unmarked)  12.1%
49. CC(C)(C)C1CCC2(CC1)SCC(=O)N2c1ccccc1 (centres unmarked)  13.6%
50. CN(C)N1C(=O)CC(N2CCCC2)C1=O.Cl (centres unmarked)  13.6%
51. COc1cccc(OCC(O)CN2CCN(C)CC2)c1.O=C(O)C(=O)O (centres unmarked)  16.2%
52. Cc1ccc2c(c1)N(S(=O)(=O)c1ccc(CN3C(=O)c4cccnc4C3=O)cc1)CCO2  18%
53. Cc1c(CC(=O)N[C@@H](C)C(=O)O)c(=O)oc2cc3c(cc12)CCC(C)(C)O3  19.7%
54. COc1cc(NC(=O)CCC(=O)c2cccs2)cc(OC)c1  20%
55. CCc1cc2c(=O)c(-c3ccc(F)cc3)c(C)oc2cc1OCC(=O)O  20.1%
56. COc1ccc(C(CC(=O)O)NC(=O)COc2cc(C)ccc2C)cc1OC (centres unmarked)  21.2%
